The values below come from publication PMC4336329 (PLoS ONE, 2015).

Each structure is given as a SMILES string. About 2,200 (0.71%) of roughly 310,000 compounds showed an effect of 50% or more. Effects have a minus sign here. This is one part of the list.

The target of the experiment is human ether-à-go-go-related gene (hERG) potassium channel (human, UniProt Q12809). In words: primary screen, population patch clamp on CHO cells stably expressing hERG.
human ether-à-go-go-related gene (hERG) potassium channel, sequence (Q12809 whole entry, looked up): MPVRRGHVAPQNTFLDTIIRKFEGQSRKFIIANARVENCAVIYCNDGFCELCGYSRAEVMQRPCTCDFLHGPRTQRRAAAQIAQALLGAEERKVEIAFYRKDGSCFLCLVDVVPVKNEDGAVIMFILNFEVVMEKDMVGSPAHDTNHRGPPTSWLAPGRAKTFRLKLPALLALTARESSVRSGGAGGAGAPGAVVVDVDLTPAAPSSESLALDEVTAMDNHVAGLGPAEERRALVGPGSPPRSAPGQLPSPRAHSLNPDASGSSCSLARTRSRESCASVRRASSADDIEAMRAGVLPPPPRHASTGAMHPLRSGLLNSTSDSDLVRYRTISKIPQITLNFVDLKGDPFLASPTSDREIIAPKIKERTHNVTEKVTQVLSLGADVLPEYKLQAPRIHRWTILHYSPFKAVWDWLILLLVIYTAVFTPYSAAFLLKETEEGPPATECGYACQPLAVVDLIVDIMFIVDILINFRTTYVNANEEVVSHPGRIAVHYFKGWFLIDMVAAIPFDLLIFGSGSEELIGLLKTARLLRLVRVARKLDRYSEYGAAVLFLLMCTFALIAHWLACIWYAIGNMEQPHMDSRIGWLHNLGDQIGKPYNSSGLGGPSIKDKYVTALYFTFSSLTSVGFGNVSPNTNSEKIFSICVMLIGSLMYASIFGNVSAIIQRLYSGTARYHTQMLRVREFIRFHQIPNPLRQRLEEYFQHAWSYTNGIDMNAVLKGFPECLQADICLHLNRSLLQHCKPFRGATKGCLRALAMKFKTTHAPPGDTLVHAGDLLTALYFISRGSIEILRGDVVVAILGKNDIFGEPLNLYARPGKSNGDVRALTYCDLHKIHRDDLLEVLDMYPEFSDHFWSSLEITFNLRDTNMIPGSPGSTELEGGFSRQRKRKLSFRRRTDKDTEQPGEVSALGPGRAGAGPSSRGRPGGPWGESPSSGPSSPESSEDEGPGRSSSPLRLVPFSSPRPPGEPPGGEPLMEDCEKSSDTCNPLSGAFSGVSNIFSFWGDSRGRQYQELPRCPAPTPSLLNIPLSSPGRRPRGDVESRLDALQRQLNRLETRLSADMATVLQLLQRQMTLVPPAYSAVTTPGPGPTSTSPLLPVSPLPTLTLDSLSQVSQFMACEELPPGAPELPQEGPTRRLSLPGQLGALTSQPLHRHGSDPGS
Turning to `CN(C(=O)Nc1ccc(Cl)c(Cl)c1)c1ccccc1C(=O)O`, the “hERG current change (%, negative = inhibition) at 1uM” value is recorded as 6.78%. As to `C/C(CC(=O)Nc1cc(Cl)ccc1C)=N\NC(N)=O`, the “hERG current change (%, negative = inhibition) at 1uM” value is 11.7%. As for `CC1=C(C(=O)OCc2ccccc2)C(c2ccc(N(C)C)cc2)NC(=O)N1` (stereo not shown), the “hERG current change (%, negative = inhibition) at 1uM” value stood at 11.3%. For the compound `CCN(CC(=O)NCc1ccc(Cl)cc1)C(=O)CCc1ccccc1`, the “hERG current change (%, negative = inhibition) at 1uM” value is -19.8%. Consider `O=c1n(-c2ccccc2)c(=O)n2n1CC(O)C2`, for which the “hERG current change (%, negative = inhibition) at 1uM” value was 9.59%. To `O=C(NCc1ccc(C(=O)N2CCC3(CC2)OCCO3)cc1)c1ccc2c(c1)OCO2` belongs 5.42%; to `COc1cc(C(=O)NCc2ccccc2)ccc1OC(F)F`, 5.92%; to `CCc1ccc(C(=O)NNc2ccc(F)cc2F)cc1`, 14.5%. Turning to `Cc1ccc(C(=O)Nc2ccc3c(c2)OCO3)cc1`, the “hERG current change (%, negative = inhibition) at 1uM” value is 4.56%. For `COc1ccc(S(=O)(=O)N(CC(=O)NC2CC3CCC2C3)c2ccccc2OC)cc1` (stereo not shown), the “hERG current change (%, negative = inhibition) at 1uM” value turned out to be 5.61%.

As to `C/C(=N/NC(=O)c1ccc(Cl)s1)c1ccc(NC(=O)COc2ccc(Cl)cc2)cc1`, the “hERG current change (%, negative = inhibition) at 1uM” value stood at 7.09%. Next, `Cc1ccc(S(=O)(=O)NCCC(=O)OCn2nnc3ccccc3c2=O)cc1`: 1.77%; `Clc1ccc(C2=Nn3c(nnc3-c3n[nH]c4c3CCC4)SC2)cc1Cl`: 3.5%; `CCC(=O)OCCCCCCOc1ccc(C(=O)O)cc1`: 13%. Next, `CCN(CCC#N)c1ccc(N2C(=O)CCCC2=O)cc1[N+](=O)[O-]`: 15.9%; `O=C(c1ccc(N2C(=O)C3CC=C(Cl)CC3C2=O)cc1)N1CCOCC1` (stereo not shown): 12.3%; `CCN(CC)C(=O)c1sc(NC(=O)c2cccnc2)c(C(=O)OC)c1C`: -2%. Next, `CCn1ccnc1C(O)c1cccc2ccccc12` (stereo not shown): 11.7%. On to `C=CCOc1cccc(/C=C/c2nc3ccccc3c(=O)[nH]2)c1`, for which the “hERG current change (%, negative = inhibition) at 1uM” value turned out to be 11.4%. To `Cc1ccc(NC(=O)c2ccc(-n3cccn3)c([N+](=O)[O-])c2)cc1C` belongs -13.5%; to `CN(CCC#N)C(=O)COC(=O)/C=C/c1ccc2c(c1)OCO2`, 9.31%. To `Cc1ccc(S(=O)(=O)N2CCN(C(=O)Cc3ccccc3)CC2)cc1` belongs -5.66%; to `CC(=O)C1=C(O)C(=O)N(Cc2ccccc2)C1c1ccccc1F` (stereo not shown), 14.5%; to `CCOc1ccc(/C=N/Nc2cc(N3CCOCC3)nc(C)n2)c(O)c1`, 11.3%. `NC(=O)c1ccsc1NC(=O)c1coc2ccccc2c1=O`: the “hERG current change (%, negative = inhibition) at 1uM” value stood at 14%. To `O=C(N/N=C/c1ccc(F)cc1)c1ccc(OCc2ccccc2)cc1` belongs 7.62%; to `FCCCOc1ccc(-c2nccc(-c3ccc(Br)cc3)n2)cc1`, 16.1%; to `CCOCC(=O)Nc1ccc2c(c1)N(S(=O)(=O)c1cccs1)CCC2`, 0.604%.

For `CCCCCOC(=O)c1ccc(NC(=O)c2ccco2)cc1`, the “hERG current change (%, negative = inhibition) at 1uM” value amounted to 7.89%. Next, `Cc1ccc(NC(=O)c2ccc(S(=O)(=O)NCC3CCCO3)cc2)cc1C` (stereo not shown): 10.4%; `O=C(Nc1nncs1)c1ccc2c(c1)OCO2`: 1.25%; `COc1ccc(C(=O)NCCCNC(=O)c2ccccn2)cc1Br`: 5.86%. In the case of `COc1ccc(-n2nnnc2SCC(=O)Nc2nc3c(s2)CCCC3)cc1`, the “hERG current change (%, negative = inhibition) at 1uM” value was 11.4%. Next, `CC12C(=O)N(Cc3ccco3)C(=O)C1C1c3ccccc3C2c2ccccc21` (stereo not shown): 3.75%; `CCCCN(C(=O)c1cccc(S(=O)(=O)N2CCCC2)c1)c1c(N)n(CCC)c(=O)[nH]c1=O`: 12.7%; `CC(C)Cc1ccc(C(C)C(=O)Nc2nccs2)cc1` (stereo not shown): 11.9%. To `CC(=O)N1CCN(S(=O)(=O)c2cccc(C(=O)Nc3ccccc3N3CCCC3)c2)CC1` belongs 16.3%; to `Cc1ccc(S(=O)(=O)N2CCN(C(=O)c3ccccc3Cc3ccccc3)CC2)c(C)c1`, 12.5%; to `O=C(COC(=O)c1c2c(nc3ccccc13)/C(=C\c1cccs1)CCC2)Nc1ccccc1Cl`, 8.16%. As for `O=C(c1nn(-c2ccccc2)c(=O)c2ccccc12)N1CCN(c2ncccn2)CC1`, the “hERG current change (%, negative = inhibition) at 1uM” value stood at 11.8%.

Turning to `CCC(=O)Nc1nc2ccccc2n1Cc1ccccc1Cl`, the “hERG current change (%, negative = inhibition) at 1uM” value turned out to be 13.5%.

Turning to `COc1ccccc1NC(=O)CNC(=O)Cn1cnc2sc(C)c(C)c2c1=O`, the “hERG current change (%, negative = inhibition) at 1uM” value stood at 4.61%. For `Cc1ccc(NC(=O)CN(C)C(=O)c2cc3ccccc3o2)cc1`, the “hERG current change (%, negative = inhibition) at 1uM” value came to 9.37%. Turning to `CCc1nnc(N2C(=O)c3ccc(Oc4ccc([N+](=O)[O-])cc4)cc3C2=O)s1`, the “hERG current change (%, negative = inhibition) at 1uM” value is recorded as 10.8%.

For `CC1Nc2ccccc2C(=O)N1NS(C)(=O)=O` (stereo not shown), the “hERG current change (%, negative = inhibition) at 1uM” value is 14.3%. For `Cc1cc2c(cc1S(=O)(=O)CCC(=O)NCc1ccccc1)OCC(=O)N2`, the “hERG current change (%, negative = inhibition) at 1uM” value is recorded as 10.2%.

As for `O=C(CN1CCC(O)(c2ccccc2F)CC1)NCCc1c[nH]c2ccccc12`, the “hERG current change (%, negative = inhibition) at 1uM” value is recorded as 9.77%. To `Cc1nc(CS(=O)c2ccc(Cl)cc2)cc(NCc2ccc(Cl)cc2Cl)n1` (stereo not shown) belongs 15.6%; to `COC(=O)c1cccc(NS(C)(=O)=O)c1C`, 5.4%. To `CC1CN(C(=O)c2ccc(NS(=O)(=O)c3ccc(F)c(F)c3)cc2)CC(C)O1` (stereo not shown) belongs -3.74%; to `Cc1ccc(Cl)cc1NC(=O)CN1CCN(C(=O)C2CCCO2)CC1` (stereo not shown), -6.83%. To `O=C(NNC1=NS(=O)(=O)c2ccccc21)c1cccc([N+](=O)[O-])c1` belongs 10.7%; to `Cc1oc(-c2cccs2)[n+]([O-])c1C.Cl`, 4.52%.

With `Cn1nc(C(=O)N2CCN(c3ccccc3F)CC2)c2c1-c1ccccc1S(=O)(=O)C2`, the “hERG current change (%, negative = inhibition) at 1uM” value came to 9.32%. To `CC(=O)Nc1ccccc1C(=O)C(=O)Nc1ccc(C(=O)NCC2CCCO2)cc1` (stereo not shown) belongs 21.4%; to `O=C(/C=C\c1ccc2c(c1)OCO2)Nc1c2c(nn1-c1ccc(Cl)cc1)CSC2`, 16.5%; to `Cc1ccc(CC2(O)CC(C)N(C)CC2C)c(C)c1` (stereo not shown), 10.9%. Next, `CC(C)(C)c1ccc(C(=O)NCC(=O)OCC(=O)NC(=O)NC2CCCC2)cc1`: -1.2%; `COc1ccc(NC(=O)c2ccc(NC(=O)CN(C)CC(=O)Nc3c(C)cccc3C)cc2)cc1`: 10.2%; `CCOC(=O)c1sc2nc(N3CCOCC3)c3c(c2c1N)CCN(Cc1ccccc1)C3`: -0.326%.

Consider `C=CCNC(=O)c1cnn(-c2ccccc2)c1-c1ccccc1`, for which the “hERG current change (%, negative = inhibition) at 1uM” value was -0.501%.

Regarding `CC1=C(C(=O)NC(C)c2ccc3c(c2)OCCO3)C2(CCC(C)CC2)OC1=O` (stereo not shown), the “hERG current change (%, negative = inhibition) at 1uM” value is 12.4%. As for `CCOc1ccc(NC(=O)Nc2ccc3nccnc3c2)cc1`, the “hERG current change (%, negative = inhibition) at 1uM” value was determined as 9.38%.

As for `CCn1cc(Br)c(C(=O)NCc2ccco2)n1`, the “hERG current change (%, negative = inhibition) at 1uM” value is 12.3%. Consider `O=C(NC(=O)N1CCCc2ccccc21)c1ccccc1`, for which the “hERG current change (%, negative = inhibition) at 1uM” value worked out at 2.21%. Next, `CC1Cc2ccccc2N1C(=O)CSc1nnnn1C` (stereo not shown): 3.45%. Next, `CCOC(=O)C1=C(c2ccccc2)N2CCS(=O)(=O)N=C2S1`: -4.61%; `COc1cccc(C2/C(=C(/O)c3ccc4c(c3)CC(C)O4)C(=O)C(=O)N2CC2CCCO2)c1` (stereo not shown): 9.11%. Next, `CCN=C1SC(C(=O)Nc2cc(Cl)cc(Cl)c2)CC(=O)N1CC` (stereo not shown): 16.8%; `COc1ccc(-n2nnc3c(SCC(=O)NCC4CCCO4)ncnc32)cc1` (stereo not shown): 8.3%. As for `O=C(Nc1nnc(SCC(=O)N2CCCCC2)s1)C1CCCCC1`, the “hERG current change (%, negative = inhibition) at 1uM” value turned out to be 13.8%. On to `CC(=O)N(C)c1ccc(NC(=O)c2ccccc2C(=O)O)cc1`, for which the “hERG current change (%, negative = inhibition) at 1uM” value is 3.72%. Next, `COc1ccc(-c2csc(N)n2)cc1F`: 25.8%. For `CC(C)(C)N1C(=O)c2ccc(C(=O)NCc3ccco3)cc2C1=O`, the “hERG current change (%, negative = inhibition) at 1uM” value was determined as 4.71%. Take `Nc1nc(NCC2CCCO2)nc(Nc2ccc(F)cc2)c1[N+](=O)[O-]` (stereo not shown): the “hERG current change (%, negative = inhibition) at 1uM” value was found to be 4.45%. To `CC#CC[N+](C)(C)CCCCCCCCCCCC.[Br-]` belongs -6.29%; to `COC(=O)c1sccc1NC(=O)c1cc(-c2ccc(C)cc2C)nc2ccccc12`, 6.32%; to `O=c1[nH]n(-c2cccc3cccnc23)c(=O)c2ccccc12`, -7.05%. For `Cc1sc2ncn(CC(=O)Nc3c(F)cccc3F)c(=O)c2c1S(=O)(=O)N1CCC(C)CC1`, the “hERG current change (%, negative = inhibition) at 1uM” value was found to be 18%. To `CNCc1c(OCc2ccccc2F)ccc2ccccc12.Cl` belongs 0.755%; to `O=C(c1c[nH]c(C(=O)N2CCN(Cc3ccccc3)CC2)c1)C1CCCCC1`, 7.45%. Regarding `CCOC(=O)c1sc(-c2ccccc2)cc1NC(=O)Nc1ccc([N+](=O)[O-])cc1`, the “hERG current change (%, negative = inhibition) at 1uM” value amounted to 15.9%. Next, `Cc1cc(NC(=O)CSc2nc(C3CCCCC3)nc3ccccc23)no1`: 14.8%; `Cc1ccc([N+](=O)[O-])cc1NC(=S)NC(=O)c1cccs1`: 12.2%; `Cl.N[C@@H](Cc1ccccc1)C(=O)N1CCC(C(=O)N[C@@H](CCC(=O)O)C(=O)O)CC1`: 6.51%. To `Cc1ccc(C)c(NC2=CC(=O)CC(C)(C)C2)c1C#N.Cl` belongs 1.32%; to `O=C(Nc1ccccn1)c1sc2cc([N+](=O)[O-])ccc2c1Cl`, 16.8%. As to `O=[N+]([O-])c1ccc(N/N=C/c2cccnc2)cc1`, the “hERG current change (%, negative = inhibition) at 1uM” value is 9.27%.
